No constants are given. Whether binding was seen depends on the method and setting. Binding seen in cells or lysates may run through a third protein. Some results given as binding are weak or reduced against the parent protein; the word gives no strength. For part of these data: Where a sequence is shown, tags or fusion partners need not be part of it.

The chains behind the UniProt entries cited, without tags or fusion partners.
UniProt Q04637: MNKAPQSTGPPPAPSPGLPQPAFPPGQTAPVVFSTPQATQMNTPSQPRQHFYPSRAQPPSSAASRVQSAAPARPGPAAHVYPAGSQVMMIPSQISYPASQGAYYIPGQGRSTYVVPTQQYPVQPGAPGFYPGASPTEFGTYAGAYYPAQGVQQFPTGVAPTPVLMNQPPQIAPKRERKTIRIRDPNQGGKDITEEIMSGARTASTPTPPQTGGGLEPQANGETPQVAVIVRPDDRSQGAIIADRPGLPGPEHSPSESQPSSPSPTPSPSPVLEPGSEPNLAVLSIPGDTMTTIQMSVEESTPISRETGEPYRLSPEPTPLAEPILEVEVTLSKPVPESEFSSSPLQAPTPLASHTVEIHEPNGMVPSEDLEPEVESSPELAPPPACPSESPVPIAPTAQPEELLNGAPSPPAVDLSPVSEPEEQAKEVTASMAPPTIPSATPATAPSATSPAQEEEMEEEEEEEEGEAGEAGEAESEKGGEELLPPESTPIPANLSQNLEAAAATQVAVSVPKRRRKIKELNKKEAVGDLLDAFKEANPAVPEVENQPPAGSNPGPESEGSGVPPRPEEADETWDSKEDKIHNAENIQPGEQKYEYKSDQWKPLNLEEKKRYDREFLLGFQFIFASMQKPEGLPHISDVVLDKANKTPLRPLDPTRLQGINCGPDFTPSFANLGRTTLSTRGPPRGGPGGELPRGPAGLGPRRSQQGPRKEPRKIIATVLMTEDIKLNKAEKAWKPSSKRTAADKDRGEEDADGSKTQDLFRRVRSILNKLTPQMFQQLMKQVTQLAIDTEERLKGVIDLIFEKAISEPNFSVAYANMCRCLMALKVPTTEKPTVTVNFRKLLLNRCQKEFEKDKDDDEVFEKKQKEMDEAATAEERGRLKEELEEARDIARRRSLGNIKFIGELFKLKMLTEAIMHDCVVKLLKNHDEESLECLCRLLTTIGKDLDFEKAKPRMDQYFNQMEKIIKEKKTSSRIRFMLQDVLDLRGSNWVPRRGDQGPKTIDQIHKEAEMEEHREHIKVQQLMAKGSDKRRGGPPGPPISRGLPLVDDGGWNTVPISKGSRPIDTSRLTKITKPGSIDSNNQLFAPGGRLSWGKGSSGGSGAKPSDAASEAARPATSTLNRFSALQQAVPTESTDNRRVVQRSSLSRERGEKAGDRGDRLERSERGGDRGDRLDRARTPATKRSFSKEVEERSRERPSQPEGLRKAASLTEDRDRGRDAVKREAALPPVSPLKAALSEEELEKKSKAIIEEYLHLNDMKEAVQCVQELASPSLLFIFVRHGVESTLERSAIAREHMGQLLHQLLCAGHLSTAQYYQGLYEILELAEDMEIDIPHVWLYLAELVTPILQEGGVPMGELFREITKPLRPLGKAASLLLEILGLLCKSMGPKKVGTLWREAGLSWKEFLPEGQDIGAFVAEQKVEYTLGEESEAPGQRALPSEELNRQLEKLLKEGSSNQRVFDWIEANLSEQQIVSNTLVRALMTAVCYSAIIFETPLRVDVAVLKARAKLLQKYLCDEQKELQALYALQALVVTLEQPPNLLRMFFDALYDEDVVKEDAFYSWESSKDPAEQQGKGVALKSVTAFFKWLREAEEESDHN
UniProt P06730: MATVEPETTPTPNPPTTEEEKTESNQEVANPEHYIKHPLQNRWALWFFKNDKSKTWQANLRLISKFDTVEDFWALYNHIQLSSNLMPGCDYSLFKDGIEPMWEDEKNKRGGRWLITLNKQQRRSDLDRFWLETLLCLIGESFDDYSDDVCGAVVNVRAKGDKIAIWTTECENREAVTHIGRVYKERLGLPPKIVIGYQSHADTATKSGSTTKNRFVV
UniProt P60842: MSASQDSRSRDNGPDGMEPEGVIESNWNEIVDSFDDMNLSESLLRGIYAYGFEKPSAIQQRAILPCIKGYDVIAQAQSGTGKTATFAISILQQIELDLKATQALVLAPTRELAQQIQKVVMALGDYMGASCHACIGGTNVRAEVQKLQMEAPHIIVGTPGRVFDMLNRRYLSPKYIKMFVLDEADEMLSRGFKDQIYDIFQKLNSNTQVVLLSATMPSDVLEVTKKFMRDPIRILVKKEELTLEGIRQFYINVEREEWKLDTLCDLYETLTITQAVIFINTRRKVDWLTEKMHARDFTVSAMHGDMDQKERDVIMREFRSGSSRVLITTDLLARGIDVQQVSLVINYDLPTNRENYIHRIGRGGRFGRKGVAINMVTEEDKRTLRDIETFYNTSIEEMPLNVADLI

This passage reports binding results from paper PMC10131790.

The target in assay [1] is eIF4G (human (endogenous in RD)) (UniProt Q04637). Description: proximity ligation; in situ Duolink PLA with antibodies against endogenous CDKAL1 and eIF4G in fixed CD133^high and CD133^low RD cells.
The target of assay [2] is eIF4E (human (endogenous in RD)) (UniProt P06730). Description: pull-down; m^7GTP-sepharose beads capture eIF4E and its binding proteins from RD cell lysate (also MGG8, MGG18), 4 h at 4 °C, lysis buffer with 0.5% NP-40, western blot of the precipitate; also with urea-based denaturation and from cells expressing Control-, CDKAL1-, EIF4G- or EIF4E-shRNA.
For assay [3] the target is unchanged. Description: condition: only cells pretreated for 24 h with tunicamycin (1 µg mL^-1), BIO (5 × 10^-6 M) or CHIR-98014 (5 × 10^-6 M); pull-down; m^7GTP-sepharose beads, lysate of RD cells pretreated for 24 h with tunicamycin (1 µg mL^-1), BIO (5 × 10^-6 M) or CHIR-98014 (5 × 10^-6 M), western blot of the precipitate. In general terms: In western blotting, separated proteins are transferred to a membrane and probed.

In assay [4] the target is eIF4A (human (endogenous in RD)) (UniProt P60842). Description: proximity ligation; in situ Duolink PLA with anti-myc tag antibody and antibodies against endogenous eIF4A, eIF4G and eIF4E in fixed RD cells expressing myc-CDKAL1^WT; parental RD cells as control.
In assay [5] the target is eIF4E (human (endogenous in RD)) (UniProt P06730). Described as above.
For assay [6], the target named is eIF4G (human (endogenous in RD)) (UniProt Q04637). The description is as above.

B1: CDKAL1 (protein, UniProt Q5VV42 1-579)
chain: MPSASCDTLLDDIEDIVSQEDSKPQDRHFVRKDVVPKVRRRNTQKYLQEEENSPPSDSTIPGIQKIWIRTWGCSHNNSDGEYMAGQLAAYGYKITENASDADLWLLNSCTVKNPAEDHFRNSIKKAQEENKKIVLAGCVPQAQPRQDYLKGLSIIGVQQIDRVVEVVEETIKGHSVRLLGQKKDNGRRLGGARLDLPKIRKNPLIEIISINTGCLNACTYCKTKHARGNLASYPIDELVDRAKQSFQEGVCEIWLTSEDTGAYGRDIGTNLPTLLWKLVEVIPEGAMLRLGMTNPPYILEHLEEMAKILNHPRVYAFLHIPVQSASDSVLMEMKREYCVADFKRVVDFLKEKVPGITIATDIICGFPGETDQDFQETVKLVEEYKFPSLFINQFYPRPGTPAAKMEQVPAQVKKQRTKDLSRVFHSYSPYDHKIGERQQVLVTEESFDSKFYVAHNQFYEQVLVPKNPAFMGKMVEVDIYESGKHFMKGQPVSDAKVYTPSISKPLAKGEVSGLTKDFRNGLGNQLSSGSHTSAASQCDSASSRMVLPMPRLHQDCALRMSVGLALLGLLFAFFVKVYN
On to B1, for which the binding result in assay [1] is recorded as “binds”; in assay [2], “binds”; in assay [3] it was “no binding”.

B2: myc-tagged CDKAL1 (protein, UniProt Q5VV42 1-579)
chain: B1 chain
As to B2, the binding entry in assay [4], in assay [5] and in assay [6] was “binds” throughout.
